Reference: PubChem BioAssay AID2528 (National Center for Advancing Translational Sciences (NCATS), 2010)
The whole screen tested about 350,000 compounds, of which about 700 (0.2%) were called active. Calls come from the whole dose curve; as a rule, active = well fitted inhibition curve with a large enough effect; inconclusive = small, poorly fitted or top-dose-only effect; inactive = flat fitted curve, though single readings scatter. The list shows a part of the results, in another mix than the full data.

Molecular target: RecQ-like DNA helicase BLM (Homo sapiens) (UniProt P54132)
Sequence of UniProt P54132 (P54132 whole entry, looked up): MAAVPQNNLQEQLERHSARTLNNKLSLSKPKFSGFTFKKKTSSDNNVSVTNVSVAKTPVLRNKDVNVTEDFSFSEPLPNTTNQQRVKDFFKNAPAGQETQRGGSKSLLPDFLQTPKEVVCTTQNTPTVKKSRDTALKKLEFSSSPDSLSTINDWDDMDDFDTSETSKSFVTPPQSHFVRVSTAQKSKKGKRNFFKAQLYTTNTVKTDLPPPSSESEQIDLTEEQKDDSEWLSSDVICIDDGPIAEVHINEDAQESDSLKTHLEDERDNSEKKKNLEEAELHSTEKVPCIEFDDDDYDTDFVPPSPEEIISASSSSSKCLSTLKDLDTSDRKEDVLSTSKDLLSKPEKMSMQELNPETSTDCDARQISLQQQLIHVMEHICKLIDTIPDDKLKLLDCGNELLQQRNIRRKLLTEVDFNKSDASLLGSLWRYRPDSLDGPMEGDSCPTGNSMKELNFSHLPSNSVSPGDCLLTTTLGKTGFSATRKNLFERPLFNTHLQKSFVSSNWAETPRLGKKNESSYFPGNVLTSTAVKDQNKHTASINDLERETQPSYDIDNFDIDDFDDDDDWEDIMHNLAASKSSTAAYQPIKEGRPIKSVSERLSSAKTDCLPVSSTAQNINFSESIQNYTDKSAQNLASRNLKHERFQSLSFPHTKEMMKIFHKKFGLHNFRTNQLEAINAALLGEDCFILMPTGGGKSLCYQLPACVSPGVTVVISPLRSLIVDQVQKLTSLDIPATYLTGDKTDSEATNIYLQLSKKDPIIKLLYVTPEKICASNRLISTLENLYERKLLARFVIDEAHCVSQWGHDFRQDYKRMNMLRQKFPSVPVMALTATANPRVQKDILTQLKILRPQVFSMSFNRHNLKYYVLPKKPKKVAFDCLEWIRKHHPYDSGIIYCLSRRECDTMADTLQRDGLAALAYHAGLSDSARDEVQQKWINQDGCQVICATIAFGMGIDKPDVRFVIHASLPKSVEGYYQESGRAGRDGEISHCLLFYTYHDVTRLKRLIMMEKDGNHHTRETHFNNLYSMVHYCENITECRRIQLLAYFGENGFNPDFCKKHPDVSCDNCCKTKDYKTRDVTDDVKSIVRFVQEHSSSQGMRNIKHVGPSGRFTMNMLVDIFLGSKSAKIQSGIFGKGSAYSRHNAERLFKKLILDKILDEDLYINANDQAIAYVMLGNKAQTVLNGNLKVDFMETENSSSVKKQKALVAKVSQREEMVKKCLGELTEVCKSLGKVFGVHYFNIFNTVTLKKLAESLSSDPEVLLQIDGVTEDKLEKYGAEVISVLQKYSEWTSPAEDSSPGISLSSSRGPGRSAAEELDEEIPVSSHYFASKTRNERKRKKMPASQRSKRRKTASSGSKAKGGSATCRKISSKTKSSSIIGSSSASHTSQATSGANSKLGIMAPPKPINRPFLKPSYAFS
Assay: qHTS Assay for Inhibitors of Bloom's syndrome helicase (BLM); note: nearly all actives have a fitted effect of over 35% in size;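 for activity change, negative = inhibition: plate controls were vehicle for no effect and no enzyme for full effect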
Conditions: recombinant BLM DNA unwinding, fluorescence dequenching; series mostly up to 56.1 µM; activity change, negative = inhibition: at the top concentration
Potency is the fitted concentration of half-maximal effect.

| Structure (SMILES) | activity change, negative = inhibition | Potency |
| --- | --- | --- |
| CCCCCCCCCCCCC/C=C\[C@@H](O)[C@@H](N)CO | inactive: -1.15% |  |
| COc1cccc2c1C(=O)c1c(O)c3c(c(O)c1C2=O)C[C@](O)(C(C)=O)C[C@H]3O[C@@H]1C[C@H](N)[C@H](O)[C@H](C)O1 |  | active: 14.1 µM |
| O=C(O)C1=CCNCC1 |  | inactive |
| CC1(C)Cc2c(C#N)c(N3CCN(C(=O)c4ccccc4)CC3)nc(-c3ccco3)c2CS1 |  | active: 28.2 µM |
| CS(=O)(=O)Nc1ccc([N+](=O)[O-])cc1Oc1ccccc1 |  | inactive |
| CC[C@]1(O)CC2CN(CCc3c([nH]c4ccccc34)[C@@](C(=O)OC)(c3cc4c(cc3OC)N(C=O)[C@H]3[C@@](O)(C(=O)OC)[C@H](OC(C)=O)[C@]5(CC)C=CCN6CC[C@]43[C@@H]65)C2)C1 (stereo partly specified) | inactive: -4.73% |  |
| Cc1ccc(/C(=C\CN2CCCC2)c2ccccn2)cc1 |  | inactive |
| NC(=O)c1ncn([C@@H]2O[C@H](CO)[C@@H](O)[C@H]2O)c1O | inactive: -3.33% |  |
| CC[C@H](C)C(=O)O[C@H]1CCC=C2C=C[C@H](C)[C@H](CC[C@@H]3C[C@H](O)CC(=O)O3)[C@H]21 | inactive: -11.7% |  |
| CN1CCCC1CCO[C@@](C)(c1ccccc1)c1ccc(Cl)cc1 (stereo partly specified) | inactive: -0.377% |  |
| Cc1ccc(C(=O)Nc2nnc(CC(=O)N/N=C/c3ccc(O)c(O)c3)s2)cc1 |  | active: 12.6 µM |
| O=c1c(-c2ccc(O)cc2)coc2cc(O)cc(O)c12 |  | inactive |
| Cc1cn(C2CC(N=[N+]=[N-])C(CO)O2)c(=O)[nH]c1=O (stereo unspecified) | inactive: -6.79% |  |
| CC(C)C[C@H](NC(=O)[C@@H](O)[C@H](N)Cc1ccccc1)C(=O)O |  | inactive |
| Nc1ccc(O)c2c1C(=O)c1ccccc1C2=O |  | active: 14.1 µM |
| COC(=O)[C@H]1[C@H]2C[C@@H]3c4[nH]c5cc(OC)ccc5c4CCN3C[C@H]2C[C@@H](OC(=O)c2cc(OC)c(OC)c(OC)c2)[C@@H]1OC | inactive: -10.4% |  |
| N[C@H](C(=O)O)[C@H](O)C(=O)O | inactive: -0.53% |  |
| CNC[C@H](O)c1cccc(O)c1 |  | inactive |
| CSc1nc(N)c2ncn([C@H]3O[C@H](COP(=O)(O)OP(=O)(O)O)[C@@H](O)[C@@H]3O)c2n1 | inactive: -4.94% |  |
| COC(=O)c1ccc(COc2ccc(/C=C(\C#N)c3nc4ccccc4[nH]3)cc2OC)o1 |  | active: 14.1 µM |
| CCN(CC)CCNC(=O)c1ccc(NC(C)=O)cc1 |  | inactive |

| Structure (SMILES) | activity change, negative = inhibition | Potency |
| --- | --- | --- |
| CCCCCCN(CCCCCC)C(=O)Cc1c(-c2ccc(F)cc2)[nH]c2ccccc12 | inactive: -15.9% |  |
| Cc1cc(=O)c2c(O)c3c(O)cc(O)c4c5c(O)cc(O)c6c(O)c7c(=O)cc(C)c8c1c2c(c34)c(c65)c78 |  | active: 20 µM |
| c1ccc(CSc2nnc(-c3ccco3)c(-c3ccco3)n2)cc1 |  | active: 14.1 µM |
| C/C=C1\C(=O)CC2C3CCC4=CC(=O)CC[C@]4(C)C3CC[C@]12C (stereo partly specified) | inactive: -6.71% |  |
| Cc1cc(C(=O)O)ccc1-c1ccc(/C=C2\SC(=O)N(CC(=O)Nc3ccc4c(c3)OCO4)C2=O)o1 |  | active: 11.2 µM |
| O=C(O)[C@@H]1C[C@@H](C(=O)O)N1 | inactive: -1.56% |  |
| CC(C)NCC(O)c1ccc(NS(C)(=O)=O)cc1 (stereo unspecified) |  | inactive |
| CC1=C(C)C(=O)C(CCCCC#CCCCC#CCO)=C(C)C1=O | inactive: -12.1% |  |
| COc1cc2c(cc1O)CC[C@@H]1[C@@H]2CC[C@]2(C)[C@@H](O)CC[C@@H]12 | inactive: -7.84% |  |
| CC12C=C(/C=C/CCc3ccco3)C(C)(C1)[C@H](CCc1ccco1)CC2=O (stereo partly specified) | inactive: -3.52% |  |
| CCCCCCCCCCCCCCCCCCOC[C@H](COP(=O)([O-])OCC[N+](C)(C)C)OC | inactive: -4.01% |  |
| CO[C@]1(C2=NCCN2)COc2ccccc2O1 | inactive: 4.25% |  |
| CCc1ccc(S(=O)(=O)/N=C2\C=C(Nc3cccc(C(=O)O)c3)C(=O)c3ccccc32)cc1 |  | active: 25.1 µM |
| COc1ccc([C@@H]2CNC(=O)C2)cc1OC1CCCC1 |  | inactive |
| COc1ccc2nc3cccc(OC)c3nc2c1 |  | active: 3.55 µM |
| CC(=O)c1sc2nc(CSc3nnnn3-c3ccccc3)[nH]c(=O)c2c1C |  | active: 15.8 µM |
| O=C(O)C1Nc2ccc(Br)cc2C2C=CCC12 (stereo unspecified) |  | active: 15.8 µM |
| COc1ccc(CCN(C)CCc2ccc(OC)c(OC)c2)cc1OC | inactive: -6.14% |  |
| CC#C[C@@]1(O)CC[C@H]2[C@@H]3CCC4=CC(=O)CCC4=C3[C@H](c3ccc(N(C)C)cc3)C[C@]21C | inactive: -0.828% [at 21.4 µM] |  |
| N#Cc1c(NC(=O)CSc2ncnc3sccc23)oc(-c2ccco2)c1-c1ccco1 |  | active: 20 µM |
| CN(C)CC[C@H](c1ccc(Cl)cc1)c1ccccn1 | inactive: 1.23% [at 21.4 µM] |  |

| Structure (SMILES) | activity change, negative = inhibition | Potency |
| --- | --- | --- |
| Cn1c(=O)c(C(=O)COC(=O)c2cc(-c3ccco3)nc3ccccc23)c(N)n(Cc2ccccc2)c1=O | inactive: -18.5% |  |
| NC(=O)CC[C@@H](N)C(=O)O | inactive: -8.79% |  |
| CC(C)(C)NC[C@H](O)COc1nsnc1N1CCOCC1 |  | inactive |
| CC(C)Cn1c(N)c(C(=O)NCC2CCCO2)c2nc3ccccc3nc21 (stereo unspecified) |  | active: 8.91 µM |
| CO[C@]1(NC(=O)CSCC#N)C(=O)N2C(C(=O)O)=C(CSc3nnnn3C)CS[C@H]21 | inactive: -1.75% |  |
| COc1cc2c(cc1OC)-c1cc(=Nc3c(C)cc(C)cc3C)n(C)c(=O)n1CC2 | inactive: -8.41% |  |
| CC1=C(C(=O)O)N2C(=O)C(NC(=O)C(N)C3=CCC=CC3)C2SC1 (stereo unspecified) | inactive: -1.42% |  |
| O=C(O)c1cccc(-n2cccc2/C=C2/NC(=O)N(c3ccc(Cl)cc3)C2=O)c1 |  | active: 3.55 µM |
| CCSC(=N)N |  | inactive |
| CC(=O)c1ccc(S(=O)(=O)NC(=O)NC2CCCCC2)cc1 |  | inactive |
| Nc1c(/C=C2/C=CC(=O)C(O)=C2)c(=O)nc2sc(CC(=O)N3CCCCC3)nn12 |  | active: 28.2 µM |
| Nc1ncn([C@@H]2O[C@H](CO)[C@@H](O)[C@H]2O)c(=O)n1 | inactive: -5.47% |  |
| COc1ccc(CN(CCN(C)C)c2ccccn2)cc1 |  | inactive |
| Cc1ccc2c(c1)C1C=CCC1C(C(=O)O)N2 (stereo unspecified) |  | active: 14.1 µM |
| C[C@@H](/C=C\c1cccc(Oc2ccc(F)cc2)c1)N(O)C(N)=O | inactive: -10.4% |  |
| CCN1/C(=C\C(C)=O)Sc2ccc(OC)cc21 | inactive: -0.473% |  |
| c1ccc(C2CN3CCSC3=N2)cc1 (stereo unspecified) |  | inactive |
| COc1cc(/C=N/NC(N)=O)ccc1OCC(=O)Nc1ccc(C)c(C)c1 |  | active: 10 µM |
| O=C(CSc1nnc2scc(-c3ccccc3)n12)Nc1nsc(-c2ccccc2)n1 |  | active: 20 µM |
